Several values for one entry are separate records, joined by “and”; a condition that tells them apart may be missing. Identical values can stand only once. Out of some 48,000 compounds screened, about 1,200 (2.5%) were called active. Not shown: some 2% with an inconclusive outcome.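 Rule for the calls: active = activation of at least 60% and not above a set upper limit (about 1 call in 100 departs from these limits); inconclusive = activation of 40% to 60%, or above that upper limit; inactive = activation under 40%.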 Some of the results follow.

This assay addresses Probable G-protein coupled receptor 32 (Homo sapiens) (UniProt O75388). Description: qHTS for Agonists of Human Resolvin D1 Receptor DRV1. Note: 0% is about no effect. The settings on record: CHO-K1 GPR32 beta-arrestin PathHunter luminescence, 90 min; at 76.9 µM; active compounds read high; zero percent set by DMSO-only wells. The method in brief: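 Beta-arrestin recruitment read-out: luminescence from complemented beta-Gal in CHO-K1 GPR32 PathHunter cells, measured 1 h after detection reagent at ambient temperature following 90 min compound exposure at 37 °C; DMSO served as basal (EC0) control.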
UniProt O75388, sequence (O75388 whole entry, looked up): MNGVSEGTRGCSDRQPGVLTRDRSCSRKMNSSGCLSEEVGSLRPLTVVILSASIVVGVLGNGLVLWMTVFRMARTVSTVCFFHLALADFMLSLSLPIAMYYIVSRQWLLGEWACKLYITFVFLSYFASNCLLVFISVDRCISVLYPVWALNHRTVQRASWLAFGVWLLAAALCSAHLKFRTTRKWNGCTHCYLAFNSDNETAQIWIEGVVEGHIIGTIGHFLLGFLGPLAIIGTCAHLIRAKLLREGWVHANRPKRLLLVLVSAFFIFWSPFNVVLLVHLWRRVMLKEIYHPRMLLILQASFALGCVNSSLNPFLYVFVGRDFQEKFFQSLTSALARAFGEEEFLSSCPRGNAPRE
In general terms: In qHTS, concentration-response curves come from the screen itself.
Turning to `Cc1ccc(C)c(-c2nn(CC(=O)Nc3cc(F)ccc3F)c(=O)c3c2CCCC3)c1`, the activation is inactive: -4.48%.

With `CC(CNC(=O)c1ccc(CSc2nc3ccncc3n2Cc2cccc(F)c2)cc1)c1ccccc1` (stereo not given), the activation is inactive: -7.67%.

For the molecule `COc1ccc(C(=O)Nc2ccc3c(c2)N(C2CCCC2)C(=O)c2ccccc2S3)cc1OC`, the activation was inactive: -7.05%.

As to `Cc1ccc2onc(CC(=O)Nc3cc(F)ccc3F)c2c1`, the activation is inactive: -11.2%.

Take `Cc1ccc(-c2cc(C(F)(F)F)n3nc(C(=O)Nc4sc5c(c4C#N)CCC(C)C5)cc3n2)cc1` (stereo not given): the activation was inactive: 7.14%.

`O=C(CSc1nnc2scc(-c3ccc(Cl)cc3)n12)Nc1ccccc1F`: the activation is inactive: -11.6%.

In the case of `COC(=O)c1c(SC)nc2ccccc2c1OCc1ccc(C)cc1C`, the activation is inactive: -12.9%.

As to `CC(=O)c1ccc(N2CCN(S(=O)(=O)c3cc(-c4onc(C)c4C)ccc3C)CC2)cc1`, the activation is inactive: -1.56%.

Consider `Cc1cccc2c1-c1sc(C(=O)N3CCN(c4ccc(F)cc4)CC3)cc1CO2`, for which the activation is inactive: -3.6%.

For `Cc1ccccc1CNC(=O)CCCn1c(=O)c2cccn2c2ccccc21`, the activation was inactive: -21.4%.

`O=C(Cn1cc(S(=O)(=O)N2CCN(c3ccccc3F)CC2)c2ccccc2c1=O)Nc1cccc(C(F)(F)F)c1`: the activation is inactive: 13.4%.

In the case of `O=C(NCCc1ccccc1)C(=O)NCC(c1cccnc1)N1CCN(c2ccccc2)CC1` (stereo not given), the activation is inactive: -0.433%.

For `COCCNC(=O)CN1C(=O)COc2ccc(S(=O)(=O)N3CCOCC3)cc21`, the activation is inactive: 1.58%.

Regarding `C=Cc1ccc(CSc2nc(-c3ccccc3C)nc3c2Cc2c(CO)cnc(C)c2O3)cc1`, the activation is inactive: 9.82%.

In the case of `CCC1CCCCN1S(=O)(=O)c1ccc2c(c1)CCCN2C(C)=O` (stereo not given), the activation was inactive: -20%.

Take `CCn1cc(C(=O)OCC(=O)Nc2cccc(Cl)c2C)c(=O)c2ccc(C)nc21`: the activation was inactive: -3.31%.

With `CCc1ccccc1N(C)C(=O)Nc1cn(CC(C)C)c(=O)c2ccccc12`, the activation is inactive: -3.85%.

On to `CCOc1ccc(CNC(=O)CCn2c(=O)c3cccn3c3cccnc32)cc1`, for which the activation is inactive: -2.73%.

Regarding `CCOc1ccc(N2CC(NC(=O)c3ccc(S(=O)(=O)N4CCOCC4)cc3)CC2=O)cc1` (stereo not given), the activation was inactive: 7.9%.

For the molecule `COC(=O)C(N)Cc1ccc(Cl)cc1` (stereo not given), the activation was inactive: 0.304%.

`N#Cc1ccc(NC(=O)COCc2cc(-c3ccc4c(c3)OCO4)on2)cc1`: the activation is inactive: 15.8%.

For the molecule `Cc1cc(N2CCN(C)CC2)nc2ccc(NC(=O)Nc3ccc(Cl)cc3)cc12`, the activation is active: 118%.

Take `COC(=O)c1scc(-c2ccc(C)cc2)c1S(=O)(=O)Nc1ccc(OC(F)(F)F)cc1`: the activation was inactive: -10.1%.

For `O=C(CSc1nc(=O)n(Cc2ccco2)c2c1CCC2)NCc1ccccc1Cl`, the activation is inactive: -24.8%.

Take `Cc1cc(C)cc(NC(=O)CN2C(=O)CSc3ccc(S(=O)(=O)N4CCCC4)cc32)c1`: the activation was inactive: -25.6%.

On to `CCOc1ccc(NC(=O)Cn2c(=O)n(Cc3ccccc3)c(=O)c3sc4ccccc4c32)cc1`, for which the activation is inactive: -3.94%.

Turning to `Cc1nn(CC(=O)N2CCN(c3ccccc3)CC2)c(=O)c2cc3cc(F)ccc3n12`, the activation is inactive: 18.7%.

On to `CC1=C(c2ccc(C(C)C)cc2)S(=O)(=O)N=C1N1CCC(C(=O)NCc2ccco2)CC1`, for which the activation is inactive: 26.5%.

Regarding `CCOC(=O)c1c(NC(=O)CSc2cn(CCNC(=O)c3ccccc3OC)c3ccccc23)sc2c1CCCC2`, the activation is inactive: -2.29%.

Regarding `O=C(NCC1CCN(Cc2cccc(F)c2)CC1)c1cc2ccc3cccnc3c2[nH]1`, the activation is inactive: 37.4%.

Consider `CCOc1ccc(NC(=O)c2c(NC(=O)c3cccc(C)c3)sc3c2CCC3)cc1`, for which the activation is inactive: 2.82%.

For the molecule `Cc1ccc(CNC(=O)Cn2c(=O)cc(-c3ccccc3)c3c(C)nn(C)c32)cc1`, the activation was inactive: -8.07%.

With `COc1ccccc1N1CCN(S(=O)(=O)CCNC(=O)COc2ccc(F)cc2)CC1`, the activation is inactive: -3.86%.

Take `COc1ccc(CCNc2ncnc3c2c(-c2ccccc2)cn3-c2cccc(Cl)c2)cc1OC`: the activation is inactive: -38.5%.

For `CCc1ccc(NC(=O)CC2C(=O)N(c3ccc(OC)cc3)C(=O)N2Cc2ccc(OC)cc2)cc1` (stereo not given), the activation is inactive: -27%.

On to `Cc1c(C(=O)NCCc2ccccc2)cccc1-n1cnc2cccnc21`, for which the activation is inactive: -8.9%.

For `CCn1c(=O)c2sccc2n2c(CCCC(=O)N3CCN(c4cc(C)ccc4C)CC3)nnc12`, the activation is inactive: -2.3%.

Take `Cc1cc(=O)n(Cc2ccc(F)cc2Cl)c2c1c(C)nn2-c1ccccc1`: the activation was inactive: -10.8%.

`COc1ccccc1CNC(=O)C1CCN(S(=O)(=O)c2c(C)noc2/C=C/c2cccs2)CC1`: the activation was inactive: -38.2%.

For the molecule `Cc1ccn2c(=O)c(C(=O)NCCc3ccc(S(N)(=O)=O)cc3)c(O)nc2c1`, the activation is inactive: 1.17%.

Take `CS(=O)(=O)NCCc1csc2nc(-c3ccccc3)nn12`: the activation is inactive: -15%.

Turning to `COc1ccc(S(=O)(=O)NC2(C(F)(F)F)NC(=O)N(CCc3ccc(OC)c(OC)c3)C2=O)cc1` (stereo not given), the activation was inactive: 23%.

On to `Cc1ccc(NCc2ccccc2-c2nnc(-c3ccccc3Cl)o2)cc1Cl`, for which the activation was inactive: -8.54%.

Consider `COc1ccc(N2C(=O)CSC23C(=O)N(CC(=O)NCc2ccccc2)c2ccccc23)cc1` (stereo not given), for which the activation is inactive: -9.98%.

With `Cc1cc(Nc2ccccc2Cl)n2nc(-c3ccco3)nc2n1`, the activation is inactive: 11.5%.

Turning to `COc1ccc(NC(=O)NCc2cccn2Cc2ccc(F)cc2)cc1OC`, the activation is inactive: 29.7%.

For the molecule `COc1ccc(OC)c(NC(=O)c2c(NCc3ccc(C)o3)sc3c2CCCCC3)c1`, the activation is inactive: -19.2%.

Take `COc1cccc(NC(=O)N(Cc2cn(C)c3ccccc23)C2CCCCC2)c1`: the activation was inactive: -41.2%.

`COc1cc(C2C(C(=O)OC(C)C)=C(C)N=C3SCCC(=O)N32)ccc1OCc1ccccc1` (stereo not given): the activation was inactive: -0.825%.

On to `O=c1oc2ccccc2cc1-c1nc(-c2cccc(Cl)c2)cs1`, for which the activation was inactive: 9.79%.

For `CC[N+](CC)(CC)CCOc1cccc(OCC[N+](CC)(CC)CC)c1OCC[N+](CC)(CC)CC`, the activation is inactive: 24% and inactive: -7.03%.

On to `COc1ccccc1N1CCN(c2ncc3c(n2)CCN(Cc2ccc(C)s2)C3)CC1`, for which the activation was inactive: -13.2%.

Consider `COc1ccc(Cl)cc1NC(=O)CSc1nc(-c2cccs2)cc(C(F)(F)F)n1`, for which the activation was inactive: -3.79%.

`CCN(CC)C(=O)Cn1cc(SCC(=O)Nc2cc(OC)ccc2OC)c2ccccc21`: the activation is inactive: -13.5%.

As for `Cc1ccc(Cl)cc1N1CCN(C(=O)c2sc3nc4n(c(=O)c3c2C)CCC4)CC1`, the activation was inactive: -6.01%.

For the molecule `CN(C)CCNC(=O)c1ccc2nc(Cc3ccccc3)oc2c1`, the activation is inactive: -18.2%.

With `COc1ccc(Cl)cc1NC(=O)CSc1cc(C)[nH]c(=O)n1`, the activation was inactive: -9.88%.

`Cc1cccn2c(=O)cc(CSc3nnc(NC(=O)C(C)C)s3)nc12`: the activation was inactive: -5.83%.

As to `Cc1ccccc1C(=O)Nc1sc2c(c1C(=O)N1CCCCC1)CCC(C(C)(C)C)C2` (stereo not given), the activation is inactive: -20.8%.

Take `CCC(CC)C(=O)Nc1ccc2nc(SCC(=O)N3CCOCC3)sc2c1`: the activation is inactive: -8.09%.

On to `COc1ccc(C(=O)NCC(c2ccc(N(C)C)cc2)N2CCOCC2)cc1` (stereo not given), for which the activation is inactive: 14.3%.

Consider `Cc1ccc(CSc2nc3ccc(NC(=O)CC(C)C)cc3s2)cc1`, for which the activation was inactive: 33.4%.

Regarding `CCC(C)n1c(SCc2ccc(F)cc2Cl)nc2ccsc2c1=O` (stereo not given), the activation is inactive: -15.7%.

In the case of `CCOC(=O)c1noc2ncn(Cc3ccc([N+](=O)[O-])cc3)c(=O)c12`, the activation was inactive: -11.6%.

As for `CSc1ccc(CCNC(=O)c2c(C)nn(-c3ccc(F)cc3)c2-n2cccc2)cc1`, the activation was inactive: -7.31%.

With `Cc1cc(=O)n2nc(N3CCC(C(=O)NCCCOC(C)C)CC3)sc2n1`, the activation is inactive: 9.71%.

As for `Cc1cc(NC(=O)c2oc3c(c2C)-c2[nH]ncc2CC3)ccc1Br`, the activation is inactive: -4.53%.

Regarding `Cc1nn(-c2ccc(F)cc2)c(-n2cccc2)c1C(=O)N1CCCCC1C` (stereo not given), the activation is inactive: 20.8%.

With `O=C(CC1NCCNC1=O)Nc1ccc(F)c(Cl)c1` (stereo not given), the activation is inactive: -7.93%.

For `NS(=O)(=O)c1cc2c(cc1Cl)NC(CC1CCCC1)NS2(=O)=O` (stereo not given), the activation was inactive: -9.01%.

Regarding `O=C(CSc1nnc(CNC(=O)c2ccccc2)n1-c1ccc(F)cc1)Nc1ccccc1F`, the activation is inactive: -7.75%.

In the case of `COc1ccc(Nc2ncc(C(=O)Nc3ccc(F)cc3F)c3ccccc23)cc1`, the activation is inactive: -8.29%.

As for `CCCCOc1ccc(C(=O)Nc2sc3c(c2C(=O)OCC)CCCCC3)cc1`, the activation was inactive: -22.2%.

`COc1ccccc1N1CCN(S(=O)(=O)c2ccc3c(c2)CCCN3C(C)=O)CC1`: the activation was inactive: -16.9%.

`CCOCCCn1c(SCC(=O)Nc2ccc(F)cc2)nc2c(sc3ccccc32)c1=O`: the activation was inactive: 26.9%.

Turning to `CCC(C(=O)Nc1cc(-c2cn3cccnc3n2)ccc1C)c1ccccc1` (stereo not given), the activation is inactive: -19.9%.

On to `CCc1cccc(NC(=O)Cn2c(-c3ccc(F)cc3)cc(C(C)=O)c2C)c1`, for which the activation was inactive: -6.16%.

On to `O=C(c1ccc2c(c1)N(Cc1ccccc1Cl)C(=O)c1ccccc1S2)N1CCCC1`, for which the activation was inactive: -30.5%.

As to `CCCCNS(=O)(=O)c1ccc(NC(=O)c2c(-c3ccccc3)noc2C)cc1`, the activation is inactive: 2.28%.

As for `CC(C)(C)NCC(O)c1cc(O)cc(O)c1` (stereo not given), the activation was inactive: 14.3% and inactive: 3%.

Consider `CCc1ccccc1-n1c(SCC(=O)Nc2ccc(C)cc2)nc2n[nH]c(C)c2c1=N`, for which the activation was inactive: -7.23%.

As for `Nc1nc2nc(-c3ccccc3)cc(=O)n2[nH]1`, the activation was inactive: -0.555%.

As for `Cc1ccccc1CNC(=O)CN1CCSc2ccccc21`, the activation is inactive: 6.04%.

On to `Cc1cccc(NS(=O)(=O)c2ccc3c(c2)n(C)c(=O)n3C)c1C`, for which the activation is inactive: 7.27%.

`Fc1ccc(CNc2nc(-c3ccc(Cl)cc3)cc(C(F)(F)F)n2)cc1`: the activation was inactive: -0.0466%.

For the origin of these results see PubChem BioAssay AID1346428 (National Center for Advancing Translational Sciences (NCATS), 2018).
